The structures appear in SMILES notation. The campaign covered roughly 43,000 compounds. About 200 (0.47%) were called active. Inconclusive results (about 12%) are left out. Calls follow the shape of the dose curve; as a rule, active = well fitted cell-killing curve with a large enough effect; inconclusive = small, poorly fitted or top-dose-only effect, or effect the other way; inactive = flat fitted curve, though single readings scatter. The list shows a part of the results.
% is scaled to controls: 0 for no effect and ±100 for the full control effect.

A short description of this test: Cell viability qHTS assay in S16 Pmp22-F2sN cells. Also: nearly all actives have a fitted effect of over 65% in size. To be noted: S16 Pmp22-F2sN Schwann cells (luciferase reporters placed in the Pmp22 gene) viability, CellTiter-Glo, 24 h; series mostly up to 57.5 µM; activity change, negative = cytotoxicity: at the top concentration. The method in brief: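 S16 Schwann cells carrying the Pmp22-F2sN reporter, seeded in 1536-well format, were exposed to library compounds for 24 h at 37C. Viability was read as CellTiter-Glo luminescence after 15 min at room temperature.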
On to `COc1cccc(NC(=O)Cn2c(=O)c3cccn3c3ccc(F)cc32)c1`, for which the “activity change, negative = cytotoxicity” value was inactive: 4.14%.

`O=S(=O)(c1ccccc1)n1nc(-c2ccc(Cl)cc2)nc1NCc1ccc(F)cc1`: the “activity change, negative = cytotoxicity” value was inactive: -1.17%. Consider `Cc1cc(C)c(NC(=O)CN(c2ccccc2)S(=O)(=O)N(C)C)c(C)c1`, for which the “activity change, negative = cytotoxicity” value was inactive: 11.7%. With `Cc1oc2ncn(CC(C)C)c(=O)c2c1C(=O)N1CCN(c2ccccc2F)CC1` the figure was inactive: -2.3%; with `CCc1ccc(NC(=O)C2(c3cccs3)CCOCC2)cc1`, inactive: 19.6%; with `Clc1ccc(-c2nnn3c2nc(N2CCCCC2)c2ccccc23)cc1`, inactive: 13.2%. In the case of `Cc1ccccc1NC(=O)c1cc2ccccc2o1` it was inactive: -5.74%; in that of `O=c1n(Cc2ccc([N+](=O)[O-])cc2)c2ccccc2c2nc(-c3ccccc3)nn12`, inactive: 3.83%; in that of `Cc1ccc(NC(=O)N(Cc2c[nH]c3ccccc23)C2CCCCCC2)cc1C`, inactive: -14.1%. With `O=C(CS(=O)(=O)c1ccc(Cl)cc1)Nc1nc2ccc(Br)cc2s1` the figure was inactive: -2.55%. For `COc1ccc(CCNC(=O)CCN2N=C(c3ccccc3)CCC2=O)cc1OC`, the “activity change, negative = cytotoxicity” value is inactive: 6.33%. With `Cc1c(NC(=O)Nc2ccccc2C(F)(F)F)c(=O)n(-c2ccccc2)n1C` the figure was inactive: 2.5%; with `Cn1c(=O)n(C)c2cc(CNCc3ccc(F)cc3)ccc21`, inactive: 1.59%; with `Cc1ccc(C(=O)N2CCc3cc(CNC(=O)c4ccccc4F)ccc32)cc1`, inactive: -10.5%.

Consider `CCOc1ccc(NC(=O)c2cccc3c(=O)c4c([nH]c23)CCCC4)cc1`, for which the “activity change, negative = cytotoxicity” value was inactive: 0.942%. With `Cc1ccc(Cn2cnc3nc4c(cc3c2=O)CCCC4)cc1` the figure was inactive: 0.0731%; with `Cc1cc(C)cc(-n2c(SCC(=O)Nc3ccccc3F)nc3c(oc4ccccc43)c2=O)c1`, inactive: 4.76%. In the case of `CC(C)OCCCNC(=O)Cn1c(-c2cccs2)cc2cc(F)ccc21` it was inactive: 11.5%. `COc1ccc(N2CCN(CCCNC(=O)c3sc4ncccc4c3-n3cccc3)CC2)cc1`: the “activity change, negative = cytotoxicity” value was inactive: -5.03%. As to `COc1cc2nc(NCCc3ccc(Cl)cc3)n3nc(-c4ccccc4)nc3c2cc1OC`, the “activity change, negative = cytotoxicity” value is inactive: 0.866%. As for `CCOc1cc(C(=O)N2CC(=O)Nc3ccc(F)cc3C2c2ccccc2)cc(OCC)c1OCC` (centres undefined), the “activity change, negative = cytotoxicity” value was inactive: -5.88%. Turning to `CCOc1cc(-c2cc(C(=O)O)c3c(-c4ccccc4)[nH]nc3n2)ccc1O`, the “activity change, negative = cytotoxicity” value is inactive: -1.31%. In the case of `COc1ccc(NC(=O)Cn2nc(C)c3c(C)n(-c4ccccc4)nc3c2=O)cc1OC` it was inactive: -3.06%; in that of `CCN(C(=O)c1nn(C)c2c1CSc1ccccc1-2)c1cccc(C)c1`, inactive: 1.34%. With `O=C(CCSCc1ccccc1Cl)NCCc1ccccc1` the figure was inactive: 0.286%. In the case of `Cc1c(-c2cccc(NC(=O)Cc3ccccc3)c2)nc2ncccn12` it was inactive: 5.36%; in that of `O=C(Cn1ccn(-c2ccc(F)c(F)c2)c(=O)c1=O)NCc1ccccc1`, inactive: -0.127%.

Turning to `CCCn1cc(S(=O)(=O)c2ccc(OCC)cc2)c(=O)c2cc(C)ccc21`, the “activity change, negative = cytotoxicity” value is inactive: 7.26%. In the case of `CCOc1ccc(-c2c(C)nn3c(C)c(C(=O)NC(C)c4ccccc4)cnc23)cc1OCC` (centres undefined) it was inactive: -1.91%; in that of `CN(Cc1ccccc1)C(=O)c1c[nH]c2ccc(S(=O)(=O)Nc3ccccc3F)cc2c1=O`, inactive: 9.92%; in that of `Cc1cc(C)c(NC(=O)c2cc(S(=O)(=O)N3CCCC3)cn2C)c(C)c1`, inactive: -2.56%. On to `Cc1ccc(OCCSc2nc3ccccc3n2CC(=O)N2CCOCC2)cc1C`, for which the “activity change, negative = cytotoxicity” value was inactive: 8.02%. In the case of `COc1cc(Cl)c(S(=O)(=O)N2CCN(c3c(C)cccc3C)CC2)cc1Cl`, the “activity change, negative = cytotoxicity” value was inactive: 8.23%. With `COc1ccc(CNc2nc(-c3ccccc3)nn2C(=O)c2ccccc2OC)cc1` the figure was inactive: -8.99%. In the case of `COC1(C(F)(F)F)NC(=O)N(c2ccc(F)cc2)C1=O` (centres undefined) it was inactive: -0.53%; in that of `CSc1ncc2c(n1)-c1ccccc1N(Cc1ccccc1C)S2(=O)=O`, inactive: 3.69%; in that of `COc1ccc(-n2c(=O)c3c(c4cc(OC)ccc4n3C)n(Cc3c(F)cccc3Cl)c2=O)cc1`, inactive: -2.12%.

With `COc1cccc(CCNC(=O)c2cnc3sc(N4CCCC4)nn3c2=O)c1`, the “activity change, negative = cytotoxicity” value was inactive: 5.17%. In the case of `Cc1cccc(-n2c3nc(=O)n(C)c(=O)c-3cc3c(C)nn(-c4ccccc4)c32)c1C` it was inactive: 10.8%.

With `CC1CCc2c(sc3nnn(CC(=O)Nc4ccccc4Cl)c(=O)c23)C1` (centres undefined), the “activity change, negative = cytotoxicity” value was inactive: 2.04%. In the case of `COc1ccc(Cl)cc1NC(=O)N1CCC2(CC1)Oc1ccccc1C(=O)N2Cc1ccc(F)cc1` it was inactive: 3.28%. For the compound `CCOC(=O)c1cnn(-c2cccc(Cl)c2)c1C1CCN(C(=O)OC(C)(C)C)CC1`, the “activity change, negative = cytotoxicity” value is inactive: -22.2%. In the case of `Cc1ccc(OCCSc2nc3ccc(NC(=O)COc4ccc(C)cc4)cc3s2)cc1` it was inactive: 16.6%. For the compound `CCOC(=O)C1=C(CN(CC)Cc2ccccc2)NC(=O)NC1c1ccc(Cl)cc1` (centres undefined), the “activity change, negative = cytotoxicity” value is inactive: -15.6%.

Take `COc1ccc(NC(=O)N2CCC(n3c(C)nc4cccnc43)CC2)cc1OC`: the “activity change, negative = cytotoxicity” value is inactive: 1.31%. In the case of `Cc1cccc(COc2ccc(-c3cc(C(F)(F)F)n4nc(C)cc4n3)cc2)c1` it was inactive: -2.34%; in that of `Cc1ccc(Nc2c3c(nc4ccccc24)CCC3)cc1F`, inactive: -14.6%.

Turning to `Cc1ccc(CNC(=O)CCN2C(=O)C(C)Oc3ccc(C)cc32)cc1` (centres undefined), the “activity change, negative = cytotoxicity” value was inactive: 14.7%. In the case of `CCc1ccc(-c2nc3cc(NC(=O)c4ccc(F)cc4)ccc3o2)cc1` it was inactive: 20.9%; in that of `CCCCNC(=O)c1ccc(-c2nc(CN3CCc4ccccc43)c(C)o2)cc1`, inactive: 6.2%; in that of `COc1ccc(OC)c(S(=O)(=O)NCCc2sc(C)nc2C)c1`, inactive: 1.39%. With `Cc1c(Cl)cccc1NC(=O)CCS(=O)(=O)c1cccc2nsnc12` the figure was inactive: -3.47%.

For the compound `COc1ccccc1N(CC(=O)NCCSc1ccccc1)S(=O)(=O)c1ccc(C)cc1`, the “activity change, negative = cytotoxicity” value was inactive: -25.1%. With `Cc1ccc(NC(=O)CCNS(=O)(=O)c2cccs2)cc1F` the figure was inactive: 1.86%; with `COc1cccc(-c2nn(C)c3sc(C(=O)N4CCN(c5cccc(C(F)(F)F)c5)CC4)cc23)c1`, inactive: -7.85%. In the case of `Cc1ccc(NC(=O)C2CCCN(S(=O)(=O)c3ccc(C)cc3)C2)cc1` (centres undefined) it was inactive: -5.08%; in that of `CCOC(=O)c1c(S(=O)(=O)N2CCN(c3cc(Cl)ccc3C)CC2)c(C)n(C)c1C`, inactive: -16.1%; in that of `Cc1ccc(NC(=O)Cn2nc(-c3ccc(Cl)cc3)c3ccccc3c2=O)cc1`, inactive: 19.4%. In the case of `COc1ccc(NC(=O)Cn2ncc3c4ccccc4n(Cc4ccccc4)c3c2=O)cc1OC` it was inactive: 20.8%; in that of `COc1ccccc1-c1ncnn1-c1sc2c(c1C#N)CCCCC2`, inactive: 3.75%; in that of `COc1cc(NS(=O)(=O)c2ccc3c(c2)OCC(C(=O)N2CCCC2)O3)cc(OC)c1` (centres undefined), inactive: -2.44%. With `COC(=O)c1ccc(NC(=O)C(c2ccccc2)N2Cc3ccccc3C2=O)cc1` (centres undefined), the “activity change, negative = cytotoxicity” value is inactive: -2.5%. Take `Cc1cccc(CCNC(=O)CCc2c(C)nc3c(-c4ccc(F)cc4)c(C)nn3c2C)c1`: the “activity change, negative = cytotoxicity” value was inactive: -4.67%. In the case of `Cc1nc(-c2ccc(Cl)cc2)sc1CCNC(=O)C(=O)Nc1ccccc1C#N` it was inactive: -2.38%; in that of `CCCc1ccc(OC(=O)c2sc3ncn(Cc4cccc(F)c4)c(=O)c3c2C)cc1`, inactive: 6.91%; in that of `COc1ccc(NC(=O)Cn2c(SCc3c(F)cccc3Cl)nc3ccncc32)cc1OC`, inactive: 6.5%. Consider `COCCn1c(SCC(=O)Nc2ccc(Br)cc2)nc2c([nH]c3ccccc32)c1=O`, for which the “activity change, negative = cytotoxicity” value was inactive: 3.28%. In the case of `CCCCN(C(=O)Nc1ccc(OCC)cc1)C1CCN(C(C)=O)CC1` it was inactive: 7.54%. Regarding `COc1ccc(N2CCN(C(=O)c3cc4c(s3)-c3c(C)cccc3OC4)CC2)cc1`, the “activity change, negative = cytotoxicity” value is inactive: 8.93%. `Cc1cc(C)cc(NC(=O)C2CCCN(c3nnc(-n4c(C)ccc4C)s3)C2)c1` (centres undefined): the “activity change, negative = cytotoxicity” value was inactive: -0.718%.

Turning to `CCN(CC)CCCNC(=O)c1ccc2c(c1)NC(=O)C(CS(=O)(=O)Cc1ccc(F)cc1Cl)N2` (centres undefined), the “activity change, negative = cytotoxicity” value was inactive: 0.0338%. As for `CCOC(=O)c1cccc(NC(=O)Cn2cnc3nc4c(cc3c2=O)CCCC4)c1`, the “activity change, negative = cytotoxicity” value was inactive: 0.352%. For the compound `COc1ccc(N2CC(c3nc(-c4ccccc4C)no3)CC2=O)cc1Cl` (centres undefined), the “activity change, negative = cytotoxicity” value was inactive: 13.4%.

With `CCc1ccc(NS(=O)(=O)c2ccc3[nH]cc(C(=O)NCCc4ccccc4)c(=O)c3c2)cc1`, the “activity change, negative = cytotoxicity” value was inactive: 13.7%. In the case of `COCCNC(=O)c1sc2nc3n(c(=O)c2c1C)CCC3` it was inactive: -2.31%. With `COc1ccc(-c2noc(CNC(=O)c3ccc(OC)cc3OC)n2)cc1` the figure was inactive: 6.46%; with `Cc1cccc(CNC(=O)C2CCN(S(=O)(=O)c3cccc4nonc34)CC2)c1`, inactive: 18%; with `CCCC(=O)OCc1cnc(C)c2oc(=O)c(C(=O)Nc3ccc(F)cc3C)cc12`, inactive: 3.18%. With `CCCCN(CC)CCNC(=O)c1nn(-c2ccc(OC)cc2)c(=O)c2c1c1ccccc1n2C` the figure was inactive: 6.17%; with `N#C/C(=C\c1ccccc1)c1nc(-c2cc3c(ccc4ccccc43)oc2=O)cs1`, inactive: 4.96%.

Regarding `COc1cccc(-c2noc(COc3cccc(C)c3C)n2)c1`, the “activity change, negative = cytotoxicity” value was inactive: 3.94%. With `CCOc1ccc(CCNC(=O)C2CC(=O)N(CCc3ccc(OC)c(OC)c3)C2)cc1OCC` (centres undefined) the figure was inactive: 3.81%; with `Clc1cccc(N2CCN(c3nc4ccccc4c4nc(-c5cccnc5)nn34)CC2)c1`, inactive: -0.0056%.

As to `COc1ccc(C)cc1NC(=O)c1ccc2c(c1)N(Cc1cccc(Cl)c1)C(=O)c1ccccc1S2=O` (centres undefined), the “activity change, negative = cytotoxicity” value is inactive: 1.72%. `Cc1ccc(C)c(NC(=O)c2ccc(=O)n(Cc3ccc(F)cc3)c2)c1`: the “activity change, negative = cytotoxicity” value is inactive: -3.14%. In the case of `CCCCC(=O)Nc1cc(-c2nc3ccccc3o2)ccc1OC` it was inactive: 13.4%; in that of `CCS(=O)(=O)N1CCc2cc(C(=O)N3CCN(c4ccccc4)CC3)ccc21`, inactive: -3.74%; in that of `CCOC(=O)c1noc2ncn(CC(=O)Nc3ccc(OC)c(Cl)c3)c(=O)c12`, inactive: -5.18%.

Take `Cc1ccc(S(=O)(=O)c2nc(-c3cccs3)oc2SC(C)c2ccccc2)cc1` (centres undefined): the “activity change, negative = cytotoxicity” value was inactive: -0.606%.

For `Cc1cc(C)n2nc(SCC(=O)Nc3ccc(O)cc3)nc2n1`, the “activity change, negative = cytotoxicity” value was inactive: -6.43%. Consider `COc1ccc2[nH]cc(CCNC(=O)Nc3c(C)cccc3C)c2c1`, for which the “activity change, negative = cytotoxicity” value is inactive: -9.78%. In the case of `Cc1ccc(NC(=O)CSc2ncccc2C(=O)Oc2ccccc2Cl)cc1Cl` it was inactive: -12.8%.

Consider `CCOc1ccc(-c2cc(C(=O)NCc3ccc(OCC)c(OC)c3)[nH]n2)cc1`, for which the “activity change, negative = cytotoxicity” value was inactive: 6.04%. For `COc1ccc(-c2ccc(NS(=O)(=O)c3ccccc3)cc2)nn1`, the “activity change, negative = cytotoxicity” value is inactive: 5.59%. With `O=c1c2sc3ccccc3c2n(Cc2ccc(F)cc2)c(=O)n1Cc1ccccc1` the figure was inactive: 0.729%; with `CCc1cccc(CC)c1NC(=O)CCS(=O)(=O)c1ccc(Br)cc1`, inactive: -10.9%; with `CCc1ccc(NC(=O)Cn2c(=O)n(CCCC(=O)NCc3ccccc3OC)c(=O)c3ccccc32)cc1`, inactive: 21.9%.

With `COc1cc(C)ccc1OCCSc1nc2ccc(NC(=O)c3ccc4c(c3)OCO4)cc2s1`, the “activity change, negative = cytotoxicity” value is inactive: -5.88%. With `Cc1cc(NC(=O)CN(C)S(=O)(=O)c2ccc3c(c2)CCCC(=O)N3)ccc1Br` the figure was inactive: -21.2%.

(Values after PubChem BioAssay AID1508642 (National Center for Advancing Translational Sciences (NCATS), 2021).)
